Source: paper PMC4336329 (PLoS ONE, 2015)
The campaign covered roughly 310,000 compounds. About 2,200 (0.71%) showed an effect of 50% or more. The effect is printed as a negative number. The list shows a part of the results.

The compounds below were run against human ether-à-go-go-related gene (hERG) potassium channel (human, UniProt Q12809) (assay: primary screen, population patch clamp on CHO cells stably expressing hERG).
Chain of human ether-à-go-go-related gene (hERG) potassium channel (Q12809 whole entry, looked up): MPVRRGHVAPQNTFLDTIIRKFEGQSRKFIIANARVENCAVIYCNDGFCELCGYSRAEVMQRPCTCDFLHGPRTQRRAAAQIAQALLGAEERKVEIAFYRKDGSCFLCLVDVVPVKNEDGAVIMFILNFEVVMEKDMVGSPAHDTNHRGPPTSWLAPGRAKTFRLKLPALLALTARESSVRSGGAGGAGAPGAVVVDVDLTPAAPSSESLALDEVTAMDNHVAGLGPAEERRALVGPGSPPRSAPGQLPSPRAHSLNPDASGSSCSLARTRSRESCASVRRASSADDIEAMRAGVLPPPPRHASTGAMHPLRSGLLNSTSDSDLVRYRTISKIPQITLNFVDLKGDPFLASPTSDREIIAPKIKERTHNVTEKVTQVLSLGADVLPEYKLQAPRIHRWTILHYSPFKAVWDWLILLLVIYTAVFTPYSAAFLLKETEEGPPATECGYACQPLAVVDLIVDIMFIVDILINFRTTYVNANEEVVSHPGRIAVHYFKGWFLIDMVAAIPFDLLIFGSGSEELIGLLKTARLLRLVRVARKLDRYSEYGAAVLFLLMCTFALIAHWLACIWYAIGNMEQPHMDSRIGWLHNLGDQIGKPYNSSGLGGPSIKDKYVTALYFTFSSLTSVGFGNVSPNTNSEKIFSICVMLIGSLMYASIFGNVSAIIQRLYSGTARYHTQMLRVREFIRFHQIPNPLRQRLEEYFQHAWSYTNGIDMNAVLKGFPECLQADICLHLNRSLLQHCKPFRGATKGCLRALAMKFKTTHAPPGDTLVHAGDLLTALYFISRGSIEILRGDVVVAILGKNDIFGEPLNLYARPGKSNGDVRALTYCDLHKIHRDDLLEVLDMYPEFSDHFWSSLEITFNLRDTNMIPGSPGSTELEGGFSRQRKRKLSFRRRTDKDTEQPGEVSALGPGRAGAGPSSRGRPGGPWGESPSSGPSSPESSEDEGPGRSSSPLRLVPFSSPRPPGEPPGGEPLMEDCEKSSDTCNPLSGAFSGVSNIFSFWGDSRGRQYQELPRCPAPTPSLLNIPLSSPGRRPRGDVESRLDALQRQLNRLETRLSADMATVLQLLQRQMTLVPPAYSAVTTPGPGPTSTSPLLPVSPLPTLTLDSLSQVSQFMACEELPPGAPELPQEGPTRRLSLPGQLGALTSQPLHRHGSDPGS

Row | Compound | hERG current change (%, negative = inhibition) at 1uM [%]
1 | O=C1CSCN1c1ccc(Cl)cc1 | 9.08
2 | CCC(C)(C)n1nnnc1C(c1cc2cc(C)cc(C)c2[nH]c1=O)N1CCCC1 (centres unmarked) | 7.13
3 | CC(C)CC(NS(=O)(=O)c1ccccc1)C(=O)O (centres unmarked) | 10.3
4 | CCOc1ccc(NC(=O)CSCC(=O)O)cc1 | 4.12
5 | O=C(CSc1nc2ccccc2c(=O)n1Cc1ccco1)NCCN1C(=O)CSC1=O | -56
6 | COc1ccc(Cl)cc1NC(=O)Cn1c(=O)n2nc(C)nc2c2ccccc21 | 0.74
7 | COc1ccccc1C1C(C#N)=C(N)N(N(C)C)C2=C1C(=O)CC(C)(C)C2 (centres unmarked) | 6.54
8 | CSCC(=O)N1CCCC(N2CCN(c3cccc(C(F)(F)F)c3)CC2)C1 (centres unmarked) | -18.4
9 | CC(=O)c1cccc(NC(=O)c2ccc(N(Cc3ccc(C)cc3)S(C)(=O)=O)cc2)c1 | -13.7
10 | CC(=O)c1ccc(S(=O)(=O)N2CCN(CCOc3ccc(Br)cc3)CC2)cc1 | 11.3
11 | CCOC(=O)[C@H]1[C@H]2COc3ccc(C)cc3[C@@H]2N2C(=O)c3ccc(C)cc3NC(=O)[C@@]12C | 7.82
12 | Cc1cnc(=O)[nH]c1SCc1cccc([N+](=O)[O-])c1 | 7.53
13 | Oc1cc(O)cc(/C=C/c2ccc(O)c(O)c2)c1 | 5.83
14 | O=C(Oc1ccc(-c2cnc3ccccc3n2)cc1)c1cc([N+](=O)[O-])ccc1Cl | 15.2
15 | CCCN(C(=O)c1ccco1)c1nnc(-c2ccncc2)s1 | -5.41
16 | COC(=O)c1cc(C(=O)N2CCc3ccccc32)cc([N+](=O)[O-])c1 | -2.21
17 | Cc1cccc(C)c1NC(=O)CCn1cnc2ccccc2c1=O | 14.9
18 | COc1ccc(OC)c(C(C)NC(=O)Nc2ccccc2)c1 (centres unmarked) | 6.31
19 | CCOC(=O)N1CCN(C(=O)CSCc2ccccc2C)CC1 | 7
20 | COc1ccc(OC)c(NC(=O)N[C@H](Cc2ccccc2)C(=O)NN)c1 | 23.9
21 | CCN(CC)CC(O)CN1c2ccccc2Sc2ccccc21 (centres unmarked) | 7.71
22 | CC(=O)Nc1ccc(S(=O)(=O)CCC(=O)O)cc1 | 14.5
23 | Cn1cc(C(=O)Nc2ccc3c(c2)CCC3)cn1 | 15.4

Row | Compound | hERG current change (%, negative = inhibition) at 1uM [%]
24 | CC(=O)Nc1ccc(OCC(=O)c2cc(C)ccc2C)cc1 | 8.78
25 | COc1ccc(-c2nnc3ccc(SCC(=O)N4CCCCC4)nn23)cc1OC | 6.34
26 | NNC(=O)c1ccccc1CO | 3.03
27 | Cc1nc(N=Nc2ccc(O)cc2)n[nH]1 | 3.4
28 | COC(=O)CN(C#N)c1nc(NCc2ccccc2)nc(OC)n1 | 9.91
29 | COCCC(=O)N1CCC(Oc2ccc(C(=O)N(C)C3CCCCC3)cc2)CC1 | 14
30 | Cn1c(=O)n(C)c2cc(NC(=O)c3ccc(F)cc3)c(Br)cc21 | 12.5
31 | O=C(NCCN1CCOCC1)c1cc(-c2ccc(Cl)cc2Cl)on1 | 2.97
32 | Cc1cc(C)c(S(=O)(=O)N2CCCCC2CCNC(=O)C(=O)NCc2ccccn2)c(C)c1 (centres unmarked) | 15.1
33 | CCOc1ccc2[nH]c3c(NCCc4ccc(OC)c(OC)c4)ncnc3c2c1 | -0.786
34 | CCn1nc(C)c(NC(=O)c2cc(Br)ccc2Cl)c1C | 6.77
35 | COC(=O)c1ccc(S(=O)(=O)NCc2ccco2)o1 | 9.18
36 | COc1ccc(C(NC(C)=O)c2c(O)ccc3ccccc23)cc1OC (centres unmarked) | 5.83
37 | Nc1ccnn1Cc1cccnc1 | 9.35
38 | COCc1cc(CN2CCCC2)c(O)c2ncccc12 | 10.5
39 | COc1cc(-c2nc3oc4ccccc4c(=O)c3c(=O)n2Cc2ccco2)cc(OC)c1OC | 15.4
40 | CC1=C(C(=O)OC(C)C)C(c2cncc(-c3ccc(F)cc3)c2)C(C#N)=C(N)O1 (centres unmarked) | 9.33
41 | CC(=O)Nc1ccc(S(=O)(=O)Nc2cccc(-c3nc4cc(C)ccc4o3)c2)cc1 | 8.09
42 | CC(C)C(=O)N1c2ccccc2NC2=C(C(=O)CCC2)C1c1ccc(N(C)C)cc1 (centres unmarked) | 8.65
43 | CNC(=O)Nc1ccc(C2SCCS2)cc1 | 14.6
44 | CC(=O)c1ccc2noc(-c3ccc(C)cc3)c2c1 | 11
45 | Cc1cccc(C(=O)O/N=C(\N)c2ccc(Br)cc2)c1 | 11.8
46 | Cc1ccc(NC(=O)Cc2nn(C)c(=O)c3ccccc23)cc1F | 14.4

Row | Compound | hERG current change (%, negative = inhibition) at 1uM [%]
47 | COc1ccccc1NS(=O)(=O)c1cc([N+](=O)[O-])ccc1N/N=C/c1c(C)[nH]c2ccccc12 | 10.2
48 | CCOC(=O)C1CCCN(Cc2ccccc2OCC)C1 (centres unmarked) | 1.34
49 | CN1C(=S)SC2CS(=O)(=O)CC21 (centres unmarked) | 9.97
50 | NC(=O)C1CCN(C(=O)c2cccc3ccccc23)CC1 | 10.7
51 | Cc1cnccc1CN(C)Cc1cn(C)nc1-c1ccc(Oc2ccccc2)cc1 | 12
52 | COc1cc(OC)cc(C(=O)NNC(=O)c2ccccn2)c1 | 14.8
53 | CN(c1ccccc1)c1nc2ccsc2c(=O)s1 | 14
54 | CCOC(=O)c1ccc(NC(=O)CNC(=O)c2ccco2)cc1 | 16.1
55 | CC1(C)CC(=O)N(c2ccc(C#N)cc2)C(=O)C1 | 13.2
56 | CN1CCN(S(=O)(=O)c2ccc(NC(=O)C3CCCO3)cc2)CC1 (centres unmarked) | -3.45
57 | CC(C)(C)NC(=O)CCC1COc2ccccc2O1 (centres unmarked) | 1.58
58 | CCOc1ccc(/C=C(\C#N)C(=O)NCC2CCCO2)cc1OCC (centres unmarked) | 12.9
59 | O=C(NCc1ccco1)C1CCCN1C(=O)Nc1ccccc1 (centres unmarked) | 3.15
60 | O=[N+]([O-])c1cc(-c2ccc(/C=N/n3cnnc3)o2)ccc1Cl | 5.06
61 | Cn1c(SCC(=O)c2ccccc2)ncc(C(=O)Nc2ccc(F)cc2)c1=O | 7.11
62 | COc1ccccc1N1CCN(CCc2n[nH]c(=S)n2-c2ccccc2)CC1 | 7.47
63 | Cc1ccc(N2CC(C(=O)Nc3nnc(SCCC4OCCO4)s3)CC2=O)cc1 (centres unmarked) | 13
64 | CNC(=O)/C(=C\c1cccc(Oc2ccccc2)c1)NC(=O)c1ccccc1 | 11.5
65 | CCOP(=O)(OCC)C(O)c1ccc2c(c1)OCO2 (centres unmarked) | 11.5
66 | Cc1ccc(C)c(OCC(=O)N(C)CC(=O)Nc2ccc(Cl)c(C(F)(F)F)c2)c1 | 6.3
67 | O=C(NCCCCc1ccccc1)C1CC(c2ccccc2[N+](=O)[O-])=NO1 (centres unmarked) | -1.68
68 | COc1ccc(NC(=O)C2CCCN(S(=O)(=O)c3ccc4c(c3)CCCN4C(C)=O)C2)cc1Cl (centres unmarked) | 9.41
69 | Cc1nn(CC(=O)NCCCc2ccccc2)c(C)c1[N+](=O)[O-] | 5.66

Row | Compound | hERG current change (%, negative = inhibition) at 1uM [%]
70 | CCc1nc2ccccc2c(=O)n1/N=C/c1ccc(OC)cc1 | 3.37
71 | O=C(CN1C(=O)NC2(CCCC2)C1=O)Nc1nc(-c2ccc(F)cc2)cs1 | 8.2
72 | CC(C)(C)c1ccc(CNc2cc(N3CCOCC3)ccc2[N+](=O)[O-])cc1 | 19.2
73 | CC1CCCN(C(=O)CN2C3CCC2CC(O)(c2ccc(F)cc2)C3)C1 (centres unmarked) | 9.73
74 | COc1ccc(OC(=O)COc2ccc(C)cc2)cc1 | 8.57
75 | CCOC(=O)c1ccc(NC(=O)CC2SC3=NCCN3C2=O)cc1 (centres unmarked) | 13.5
76 | CCc1cc(=O)oc2cc(OCC(=O)NC3CC(C)(C)NC(C)(C)C3)ccc12 | 17.1
77 | Cc1ccc(NC(=S)N(CCCN(C)C)Cc2cc3cc4c(cc3[nH]c2=O)OCO4)c(C)c1 | 2.5
78 | CN1C(C(=O)NCc2cccc(C(F)(F)F)c2)CC2Cn3c(nc4cc(Cl)c(Cl)cc43)C21 (centres unmarked) | 11.6
79 | CN1CCN(C(=O)c2ccccc2N(Cc2ccccc2)S(C)(=O)=O)CC1 | 7.07
80 | CCN(c1ccccc1)S(=O)(=O)c1ccc2c(c1)CCCN2C(C)=O | 13.9
81 | Cc1[nH]c2ccccc2c1/C=N/NC(=O)CNC(=O)c1ccccc1 | -6.14
82 | CC(=O)Nc1nc2cc(C(N)=O)ccc2s1 | -0.145
83 | CSC1=NCCN1C(=O)COc1ccc2ccccc2c1 | 13.1
84 | CNc1nc(C)nc(-n2nc(C)cc2C)n1 | 9.5
85 | CCCCOc1ccc(-c2nc(SCC(N)=O)n[nH]2)cc1 | 3.92
86 | O=C(Cc1cccc2ccccc12)N1CCN(c2ncccn2)CC1 | 1.79
87 | O=C(Cc1ccccc1)N1CCN(CC2CC=CCC2)CC1 (centres unmarked) | 8.9
88 | O=C(NCCN1CCN(c2ccccc2)CC1)C1CCN(S(=O)(=O)c2cccc3nonc23)CC1 | 2.62
89 | O/N=C/c1ccccc1Oc1ccc(Cl)cc1 | 10.1
90 | CCNc1c(NC(C)=O)c(=O)oc2ccccc12 | 18.5
91 | O=C(NCc1ccc(F)cc1)C1CCCN(C(=O)Nc2ccccc2)C1 (centres unmarked) | 4.92
92 | Cc1c(CN2CCc3c([nH]c4ccccc34)C2C2CCCCC2)cnn1C (centres unmarked) | 1.51
